For 39 compounds, cell count results are on record in the supplement of paper PMC12462457.

The assay has as its system OVCAR8. Put plainly: cell count relative to DMSO vehicle (fold change); OVCAR8 is a high-grade serous ovarian cancer line and CX-5461 an RNA polymerase I inhibitor; higher = more surviving senescent cells (less killing). The following applies: senescence inducer: CX-5461 3 µM 48 h, then 6 d recovery (CX senescent), exposure time 24 h.

Where a name gives a salt, the structure may show the parent alone. ± gives the standard deviation of the averaged measurements. Some of the results follow.

As for `Cc1cnc(Nc2ccc(N3CCN(C)CC3)cc2)nc1Nc1cccc(S(=O)(=O)NC(C)(C)C)c1`, the cell count came to 0.896 ± 0.096 (compound dose 1 µM) and 0.194 ± 0.16 (compound dose 5 µM).

For `COc1ccc(-c2oc3c(CC=C(C)C)c(O)cc(O)c3c(=O)c2O[C@@H]2O[C@@H](C)[C@H](O)[C@@H](O)[C@H]2O)cc1` [Baohuoside I], the cell count is, setting by setting: (compound dose 1 µM) 0.974 ± 0.2; (compound dose 5 µM) 0.899 ± 0.067.

For the compound `OCC1(O)COc2cc(O)ccc2-c2cc(O)c(O)cc2C1` (stereo not drawn) [Protosappanin B], the cell count (compound dose 1 µM) is 1.18 ± 0.031 and the cell count (compound dose 5 µM) turned out to be 1.06 ± 0.049.

For `CC[C@@]1(O)C(=O)OCc2c1cc1n(c2=O)Cc2cc3cc(O)ccc3nc2-1` [(S)-10-Hydroxycamptothecin], the cell count stood at 0.795 ± 0.14 (compound dose 1 µM) and 0.655 ± 0.013 (compound dose 5 µM).

Consider `CN1CCN(CCCNc2ncc(Cl)c(-c3cc4c(C(=O)NC5CC5)cccc4s3)n2)CC1`, for which the cell count turned out to be 1.18 ± 0.19 (compound dose 1 µM) and 1.13 ± 0.038 (compound dose 5 µM).

As for `NC1(c2ccc(-c3nc4ccn5c(=O)[nH]nc5c4cc3-c3ccccc3)cc2)CCC1` [MK-2206 (dihydrochloride)], the cell count is 1.04 ± 0.21 (compound dose 1 µM) and 1.06 ± 0.18 (compound dose 5 µM).

Turning to `CC(C)=CCC[C@@H](C(=O)O)[C@H]1CC[C@@]2(C)C3=CC[C@H]4C(C)(C)[C@@H](O)CC[C@]4(C)C3=CC[C@]12C` [3-Dehydrotrametenolic acid], the cell count by setting is: (compound dose 1 µM) 1.01 ± 0.16; (compound dose 5 µM) 0.966 ± 0.13.

As for `C[C@@H]1O[C@@H](Oc2c(-c3ccc(O)c(O)c3)oc3cc(O)cc(O)c3c2=O)[C@H](O)[C@H](O)[C@H]1O` [Quercitrin], the cell count was 1.06 ± 0.23 (compound dose 1 µM) and 1.07 ± 0.1 (compound dose 5 µM).

As to `C[C@@H]1CC[C@@]2(NC1)O[C@H]1C[C@H]3[C@@H]4CC=C5C[C@@H](O[C@@H]6O[C@H](CO)[C@@H](O[C@@H]7O[C@@H](C)[C@H](O)[C@@H](O)[C@H]7O)[C@H](O)[C@H]6O[C@@H]6O[C@@H](C)[C@H](O)[C@@H](O)[C@H]6O)CC[C@]5(C)[C@H]4CC[C@]3(C)[C@H]1[C@@H]2C` [Solamargine], the cell count by setting is: (compound dose 1 µM) 0.998 ± 0.12; (compound dose 5 µM) 0.0105 ± 0.0064.

`O=C(O)Cc1ccccc1Nc1c(Cl)cccc1Cl` [Diclofenac] displayed a cell count (compound dose 1 µM) of 1.06 ± 0.017 and a cell count (compound dose 5 µM) of 1.02 ± 0.025.

For `O=C(O)Cc1ccccc1Nc1c(Cl)cccc1Cl`, the cell count runs as follows: (compound dose 1 µM) 1.137 ± 0.011; (compound dose 5 µM) 1.13 ± 0.053.

For `O=C(O)Cc1ccccc1Nc1c(Cl)cccc1Cl` [Diclofenac (potassium)], the cell count is, setting by setting: (compound dose 1 µM) 1.12 ± 0.047; (compound dose 5 µM) 1.06 ± 0.11.

`Cc1nn(C)c2nc(NNC(=O)Nc3cc(Cl)nc(Cl)c3)cc(C(C)C)c12`: the cell count reads like this: (compound dose 1 µM) 1.15 ± 0.15; (compound dose 5 µM) 1.09 ± 0.2.

Regarding `CC1(C)OC(=O)C=C[C@]2(C)[C@H]3CC[C@@]4(C)[C@H](c5ccoc5)OC(=O)[C@H]5O[C@]54[C@]3(C)C(=O)C[C@@H]12` [Obacunone], the cell count turned out to be 1.01 ± 0.05 (compound dose 1 µM) and 0.924 ± 0.044 (compound dose 5 µM).

`O=C(O)c1cc(=O)c2cccc(O)c2[nH]1`: the cell count is 1.07 ± 0.093 (compound dose 1 µM) and 1.04 ± 0.11 (compound dose 5 µM).

As to `O=c1[nH]cc(F)c(=O)[nH]1` [5-Fluorouracil], the cell count (compound dose 1 µM) stood at 1.09 ± 0.12 and the cell count (compound dose 5 µM) is 1.1 ± 0.1.

`CNC(=O)c1ccccc1Oc1nc(Nc2cc(OC)c(OC)c(OC)c2)ncc1Br`: the cell count amounted to 1.2 ± 0.24 (compound dose 1 µM) and 0.998 ± 0.04 (compound dose 5 µM).

On to `N#C[C@H]1[C@H](O)[C@@H](CO)O[C@H]1n1ccc(N)nc1=O` [CNDAC (hydrochloride)], for which the cell count is, setting by setting: (compound dose 1 µM) 0.984 ± 0.12; (compound dose 5 µM) 0.993 ± 0.16.

Consider `O=C(O)CSc1cc(NS(=O)(=O)c2ccc(Br)cc2)c2ccccc2c1O`, for which the cell count came to 1.04 ± 0.04 (compound dose 1 µM) and 1.1 ± 0.2 (compound dose 5 µM).

`Nc1ncnc(N[C@@H]2O[C@H](CO)[C@@H](O)[C@H]2O)c1[N+](=O)[O-]` [Clitocine] had a cell count (compound dose 1 µM) of 1.21 ± 0.071 and a cell count (compound dose 5 µM) of 1.08 ± 0.03.

For the compound `N[C@@H](CCC(=O)O)C(=O)O` [L-Glutamic acid], the cell count was found to be 1.04 ± 0.28 (compound dose 1 µM) and 0.987 ± 0.07 (compound dose 5 µM).

For the compound `COc1cc2c(cc1O)CC[C@@H]1[C@@H]2CC[C@]2(C)[C@@H](O)CC[C@@H]12` [2-Methoxyestradiol], the cell count by setting is: (compound dose 1 µM) 1.17 ± 0.048; (compound dose 5 µM) 1.17 ± 0.13.

Turning to `O=c1[nH]c(=O)n([C@@H]2O[C@H](CO)[C@@H](O)[C@H]2O)cc1F` [5-Fluorouridine], the cell count worked out at 1.08 ± 0.2 (compound dose 1 µM) and 1.03 ± 0.06 (compound dose 5 µM).

Regarding `NC(=O)c1ccc2nc(-c3ccc(Oc4ccc(Cl)cc4)cc3)[nH]c2c1`, the cell count is, setting by setting: (compound dose 1 µM) 1.18 ± 0.25; (compound dose 5 µM) 1.23 ± 0.31.

Regarding `CC(C)C[C@H](NC(=O)[C@@H](COC(C)(C)C)NC(=O)[C@H](Cc1ccc(O)cc1)NC(=O)[C@H](CO)NC(=O)[C@H](Cc1c[nH]c2ccccc12)NC(=O)[C@H](Cc1cnc[nH]1)NC(=O)[C@@H]1CCC(=O)N1)C(=O)N[C@@H](CCCNC(=N)N)C(=O)N1CCC[C@H]1C(=O)NNC(N)=O` [Goserelin (acetate)], the cell count reads like this: (compound dose 1 µM) 1.18 ± 0.16; (compound dose 5 µM) 1.15 ± 0.13.

With `Cc1cccc(NC(=O)Nc2ccc(-c3csc4ncnc(N)c34)cc2)c1`, the cell count is, setting by setting: (compound dose 1 µM) 1.03 ± 0.042; (compound dose 5 µM) 0.944 ± 0.095.

For `C/C=C1/[C@H](O[C@@H]2O[C@H](CO)[C@@H](O)[C@H](O)[C@H]2O)OC=C(C(=O)OC)[C@H]1CC(=O)OCCc1ccc(O)c(O)c1` [Oleuropein], the cell count by setting is: (compound dose 1 µM) 1.12 ± 0.072; (compound dose 5 µM) 1.18 ± 0.15.

As for `CC(C)(C)Cn1c(N)nc2ccc(-c3[nH]c(C(C)(C)C)nc3-c3ccc(F)cc3)nc21`, the cell count reads like this: (compound dose 1 µM) 1.15 ± 0.22; (compound dose 5 µM) 1.01 ± 0.21.

Consider `COc1ccc(C(=O)CC2(O)C(=O)Nc3c(Cl)ccc(Cl)c32)cc1` (stereo not drawn), for which the cell count was 1.13 ± 0.37 (compound dose 1 µM) and 1.21 ± 0.21 (compound dose 5 µM).

Take `CC(C)=CC(O)C/C(C)=C/COc1c2ccoc2cc2oc(=O)ccc12` (stereo not drawn) [Notopterol]: the cell count is 1.02 ± 0.076 (compound dose 1 µM) and 0.897 ± 0.12 (compound dose 5 µM).

With `CC(C)N(C(=O)c1cc(F)ccc1Oc1cncnc1N1CC2(CCN(CC3CCC(NS(C)(=O)=O)CC3)CC2)C1)C(C)C` (stereo not drawn), the cell count was 1.14 ± 0.25 (compound dose 1 µM) and 1.16 ± 0.054 (compound dose 5 µM).

Consider `CCCCC[C@H](O)/C=C/[C@@H]1[C@@H](C/C=C\CCCC(=O)O)[C@@H](O)C[C@H]1O` [Dinoprost (tromethamine salt)], for which the cell count (compound dose 1 µM) stood at 1.14 ± 0.16 and the cell count (compound dose 5 µM) was 1.09 ± 0.24.

In the case of `O=C(Nc1ccc(OC(F)(F)F)cc1)c1sccc1NCc1ccnc2ccccc12`, the cell count (compound dose 1 µM) came out at 1.21 ± 0.15 and the cell count (compound dose 5 µM) is 1.18 ± 0.081.

As for `CCCCCCCCCCCCCCCCCCOP(=O)([O-])OC1CC[N+](C)(C)CC1` [Perifosine (KRX-0401)], the cell count by setting is: (compound dose 1 µM) 1.16 ± 0.1; (compound dose 5 µM) 1.14 ± 0.038.

For `N#Cc1ccc(-c2c(-c3ncn[nH]3)sc(N3CCOCC3)c2C#N)c(F)c1`, the cell count is, setting by setting: (compound dose 1 µM) 1.15 ± 0.095; (compound dose 5 µM) 1.05 ± 0.027.

For the compound `COc1cc2c(cc1OC)[C@@H](Cc1ccc(Oc3cc(C[C@@H]4c5cc(OC)c(OC)cc5CCN4C)ccc3O)cc1)N(C)CC2` [Dauricine], the cell count by setting is: (compound dose 1 µM) 1.21 ± 0.26; (compound dose 5 µM) 1.5 ± 0.27.

For the compound `CC(=O)O[C@H](CC=C(C)C)C1=CC(=O)c2c(O)ccc(O)c2C1=O` [Acetylshikonin], the cell count is 1.19 ± 0.18 (compound dose 1 µM) and 1.14 ± 0.22 (compound dose 5 µM).

The compound `COc1cc(/C=C/C(O)=C/C(=O)/C=C/c2ccc(O)cc2)ccc1O` [Demethoxycurcumin] had a cell count (compound dose 1 µM) of 1.1 ± 0.22 and a cell count (compound dose 5 µM) of 1.01 ± 0.15.

Turning to `CC(C)[C@H]1C(=O)N[C@@H](CCCNC(=N)N)C(=O)NCC(=O)N[C@@H](CC(=O)O)C(=O)N[C@H](Cc2ccccc2)C(=O)N1C` [Cilengitide], the cell count runs as follows: (compound dose 1 µM) 0.0885 ± 0.054; (compound dose 5 µM) 0.0365 ± 0.0021.
